Source: the supplement of paper PMC4604168 (melanoma cell lines)
The other results are listed elsewhere or left out. Many values rest on one well or one pass, so single values are uncertain.

system: MeWo; assay: cell count relative to DMSO control; melanoma cells; higher = more viable cells; settings: library dose: standard library concentration; 72 h
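Also: cells treated in 1,536-well plates, then fixed and DAPI-stained, with nuclei counted from automated high-throughput microscope images.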

Row | SMILES | cell count [%]
1 | C[C@]1(O)C[C@@H](c2nc(-c3ccc4ccc(-c5ccccc5)nc4c3)c3c(N)nccn32)C1 + Nc1ncn([C@H]2C[C@H](O)[C@@H](CO)O2)c(=O)n1 [decitabine] (first compound 2 µM, partner dose 0.5 µM) | 58.6
2 | COc1cc([C@@H]2c3cc4c(cc3[C@@H](O[C@@H]3O[C@@H]5CO[C@@H](C)O[C@H]5[C@H](O)[C@H]3O)[C@H]3COC(=O)[C@H]23)OCO4)cc(OC)c1O [etoposide] + O=C(Nc1ccccc1)c1cc([N+](=O)[O-])ccc1Cl [GW9662] (first compound 0.1 µM, partner dose 10 µM) | 75
3 | CCN(CC)CCNC(=O)c1c(C)[nH]c(/C=C2\C(=O)Nc3ccc(F)cc32)c1C [sunitinib] + NC1(c2ccc(-c3nc4ccn5c(=O)[nH]nc5c4cc3-c3ccccc3)cc2)CCC1 [MK2206] (first compound 2 µM, partner dose 2 µM) | 52.7
4 | Cn1cnc2c(F)c(Nc3ccc(Br)cc3Cl)c(C(=O)NOCCO)cc21 [selumetinib] + COCC[n+]1c2c(n(Cc3cnccn3)c1C)C(=O)c1ccccc1C2=O [YM155] (first compound 0.075 µM, partner dose 0.002 µM) | 59.6
5 | Cn1cnc2c(F)c(Nc3ccc(Br)cc3Cl)c(C(=O)NOCCO)cc21 [selumetinib] + NC1(c2ccc(-c3nc4ccn5c(=O)[nH]nc5c4cc3-c3ccccc3)cc2)CCC1 [MK2206] (first compound 0.075 µM, partner dose 2 µM) | 55.8
6 | COc1cc([C@@H]2c3cc4c(cc3[C@@H](O[C@@H]3O[C@@H]5CO[C@@H](C)O[C@H]5[C@H](O)[C@H]3O)[C@H]3COC(=O)[C@H]23)OCO4)cc(OC)c1O [etoposide] + COc1cc(Nc2ncc(F)c(Nc3ccc4c(n3)NC(=O)C(C)(C)O4)n2)cc(OC)c1OC [Tamatinib] (first compound 0.1 µM, partner dose 2 µM) | 62.3
7 | Cn1cnc2c(F)c(Nc3ccc(Br)cc3Cl)c(C(=O)NOCCO)cc21 [selumetinib] + CC(C)C[C@H](NC(=O)[C@H](Cc1ccccc1)NC(=O)c1cnccn1)B(O)O [Bortezomib] (first compound 0.075 µM, partner dose 0.005 µM) | 13.3
8 | COc1cc([C@@H]2c3cc4c(cc3[C@@H](O[C@@H]3O[C@@H]5CO[C@@H](C)O[C@H]5[C@H](O)[C@H]3O)[C@H]3COC(=O)[C@H]23)OCO4)cc(OC)c1O [etoposide] + Oc1nc(-c2ccc(C(F)(F)F)cc2)nc2c1CSCC2 [XAV939] (first compound 0.1 µM, partner dose 10 µM) | 92.6
9 | COc1cc([C@@H]2c3cc4c(cc3[C@@H](O[C@@H]3O[C@@H]5CO[C@@H](C)O[C@H]5[C@H](O)[C@H]3O)[C@H]3COC(=O)[C@H]23)OCO4)cc(OC)c1O [etoposide] + COc1ccc(C2=N[C@@H](c3ccc(Cl)cc3)[C@@H](c3ccc(Cl)cc3)N2C(=O)N2CCNC(=O)C2)c(OC(C)C)c1 [Nutlin-3] (first compound 0.1 µM, partner dose 0.5 µM) | 100
10 | Cn1cnc2c(F)c(Nc3ccc(Br)cc3Cl)c(C(=O)NOCCO)cc21 [selumetinib] + COc1ccc(COc2ccc(Cc3cnc(N)nc3N)cc2OC)cc1 [GW2580] (first compound 0.075 µM, partner dose 5 µM) | 76.4
11 | C[C@]1(O)C[C@@H](c2nc(-c3ccc4ccc(-c5ccccc5)nc4c3)c3c(N)nccn32)C1 + Cn1c(=O)n(-c2ccc(C(C)(C)C#N)cc2)c2c3cc(-c4cnc5ccccc5c4)ccc3ncc21 [NVP-BEZ235] (first compound 2 µM, partner dose 0.02 µM) | 50.3
12 | Cn1cnc2c(F)c(Nc3ccc(Br)cc3Cl)c(C(=O)NOCCO)cc21 [selumetinib] + O=C(O)c1ccc(-c2c[nH]c3ncc(-c4ccccc4)cc23)cc1C1CCCC1 [GSK650394] (first compound 0.075 µM, partner dose 0.8 µM) | 75.4
13 | COc1cc([C@@H]2c3cc4c(cc3[C@@H](O[C@@H]3O[C@@H]5CO[C@@H](C)O[C@H]5[C@H](O)[C@H]3O)[C@H]3COC(=O)[C@H]23)OCO4)cc(OC)c1O [etoposide] + COc1ccc2c(c1)CCC1C2CCC2(C)C(NCCCCCCN3C(=O)C=CC3=O)CCC12 [U73122] (first compound 0.1 µM, partner dose 2 µM) | 66.5
